Laboratory results from paper PMC4336329 (PLoS ONE, 2015).
Out of some 310,000 compounds screened, about 2,200 (0.71%) showed an effect of 50% or more. The effect is printed as a negative number. This is one part of the list.

molecular target: human ether-à-go-go-related gene (hERG) potassium channel (human, UniProt Q12809); assay: primary screen, population patch clamp on CHO cells stably expressing hERG
Sequence (Q12809 whole entry, looked up): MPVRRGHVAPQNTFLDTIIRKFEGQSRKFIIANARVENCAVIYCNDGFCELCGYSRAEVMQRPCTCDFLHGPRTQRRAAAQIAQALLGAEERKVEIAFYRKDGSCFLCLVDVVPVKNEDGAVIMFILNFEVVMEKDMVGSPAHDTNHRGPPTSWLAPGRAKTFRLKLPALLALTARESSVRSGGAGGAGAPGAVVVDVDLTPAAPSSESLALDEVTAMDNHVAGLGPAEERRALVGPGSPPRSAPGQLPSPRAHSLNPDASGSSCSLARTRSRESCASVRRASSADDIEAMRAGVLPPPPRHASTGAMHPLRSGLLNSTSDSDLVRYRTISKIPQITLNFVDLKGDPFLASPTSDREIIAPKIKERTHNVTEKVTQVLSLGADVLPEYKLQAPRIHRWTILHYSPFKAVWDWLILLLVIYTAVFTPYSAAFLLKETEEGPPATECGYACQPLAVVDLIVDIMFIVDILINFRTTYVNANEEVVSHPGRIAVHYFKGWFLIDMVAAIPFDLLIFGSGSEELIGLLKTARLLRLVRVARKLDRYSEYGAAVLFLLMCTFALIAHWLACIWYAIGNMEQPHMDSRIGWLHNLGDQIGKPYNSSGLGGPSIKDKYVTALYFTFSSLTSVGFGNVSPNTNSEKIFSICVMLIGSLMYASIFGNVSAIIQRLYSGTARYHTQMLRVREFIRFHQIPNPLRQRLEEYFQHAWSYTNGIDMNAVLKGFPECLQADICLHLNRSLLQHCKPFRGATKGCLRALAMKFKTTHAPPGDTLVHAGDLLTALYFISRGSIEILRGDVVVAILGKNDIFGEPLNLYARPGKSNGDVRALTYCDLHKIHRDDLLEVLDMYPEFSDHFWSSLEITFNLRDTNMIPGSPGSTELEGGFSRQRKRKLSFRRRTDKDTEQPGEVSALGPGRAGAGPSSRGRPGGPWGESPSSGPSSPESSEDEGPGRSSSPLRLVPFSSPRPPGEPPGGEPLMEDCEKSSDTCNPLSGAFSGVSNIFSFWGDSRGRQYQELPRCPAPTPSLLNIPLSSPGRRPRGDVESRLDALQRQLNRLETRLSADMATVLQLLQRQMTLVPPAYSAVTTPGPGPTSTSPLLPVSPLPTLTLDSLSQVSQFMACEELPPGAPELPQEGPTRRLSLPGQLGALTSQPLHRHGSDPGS

Structure (SMILES)	hERG current change (%, negative = inhibition) at 1uM [%]
O=C(CCS(=O)NCc1ccccc1)NCc1ccccc1 (stereo not drawn)	15.3
Cc1ccc(CNC(=O)CCS(=O)(=O)c2cc3c(cc2C)NC(=O)CO3)cc1	2.98
Cc1ccc(-c2ccc(/C=N/NC(=O)c3ccccc3O)o2)cc1	15.2
O=C(Cn1ccc2ccccc2c1=O)NCCC(=O)N1CCCCC1	12.9
CCCCC(=Nc1ccc(N)cc1)C1=C(O)C(C(=O)OC)C(C)(C)CC1=O (stereo not drawn)	4.92
O=C(Cc1ccc(Cl)c(Cl)c1)Nc1cccnc1	5.04
O=c1cc(-c2ccncc2)oc2c1ccc1ccccc12	8.9
Cc1ccc(OCC(=O)NC(=S)Nc2ccc3c4c(cccc24)CC3)cc1	10.4
COc1ccc(CNC(=O)Cn2ccc(N)nc2=O)cc1	16
CCC(=O)Nc1ccc2c(c1)nc(CCN1CCC(C)CC1)n2C	12.3
CCN(CC)S(=O)(=O)c1ccc(NC2c3ccccc3C(=O)N2CCN2CCOCC2)cc1 (stereo not drawn)	-15.5
CCc1ccc(NC(=O)COC(=O)CN2C(=O)COc3ccccc32)cc1	-0.617
COC(=O)C1=C(C)N(c2cccc(C(C)=O)c2)C(=O)C1	12.8
O=C(CCCNS(=O)(=O)c1cccc2nsnc12)NCc1ccc(Cl)cc1	-4.65
CC(C)OC(=O)CSc1nnc(C2CCCCC2)n1N	8.17
CCOc1ccc(N=C2NC(=O)/C(=C/C(=O)OC)S2)cc1	7.75
COc1ccc(/C=N/NC(=O)CNc2c(Br)cc(C)cc2Br)c(C(=O)O)c1OC	10.2
Cc1cc2c(cc1S(=O)(=O)CCC(=O)NCCc1ccccc1)OCC(=O)N2	-45.7
COc1ccc(N=Cc2ccc[nH]2)cc1	7.83
COc1cccc(C(=O)Nc2cccc(OC(C)=O)c2)c1	6.53
CC(C)[C@H](NC(=O)NCCc1ccc(F)cc1)C(=O)O	4
COc1ccc(C(=O)NCC(=O)OCC(=O)Nc2cc([N+](=O)[O-])ccc2F)cc1	5.81
Cc1ccc(C(=O)CSc2nnc(C)s2)cc1	12.3
COCCCn1c(SCc2ccccc2)nc2cc(OC)c(OC)cc2c1=N	9.67

Structure (SMILES)	hERG current change (%, negative = inhibition) at 1uM [%]
Nc1nc(CSC(=S)N2CCOCC2)nc(Nc2ccccc2)n1	5.37
C/C(=N\NC(=O)c1cc(Br)ccc1O)c1ccccn1	11.2
CC1CC(c2ccccc2)NS(=O)(=O)O1 (stereo not drawn)	4.31
CCCNC(=O)C(Cc1ccc(I)cc1)NC(=O)C1CC1 (stereo not drawn)	0.0046
O=C(O)CCc1nc2ccccc2c(=O)[nH]1	7.81
CCOc1ccc(C(=O)NC(C(=O)NCc2ccccn2)C(C)C)cc1 (stereo not drawn)	11.2
S=c1[nH]nc(COc2ccccc2)n1Cc1ccccc1	11.8
COc1ccc(N/C(=N/c2nc(C)cc(C)n2)NC(=O)c2ccccc2)cc1	14.8
[O-][n+]1onc2c1CCC1N(O)CCC21O (stereo not drawn)	8.35
CCO[C@@H]1OC(C(=O)N2CCCCCCC2)=C[C@H](c2cn(C(C)=O)c3ccccc23)[C@H]1CCCO	-3.87
COCC(C)NC(=O)c1cccc([N+](=O)[O-])c1 (stereo not drawn)	16.2
Cc1ccc(N2CC(C(=O)OCC(=O)C(C)(C)C)CC2=O)cc1 (stereo not drawn)	4.44
CC(Cl)C(=O)Nc1ncc(C(F)(F)F)cc1Cl (stereo not drawn)	-4.71
O=C1CC(c2ccco2)=Nc2ccccc2N1	10.1
Cc1cc(C)n(/N=C\c2c(O)ccc3ccccc23)c(=O)c1C(N)=O	2.39
CN(Cc1ccccc1F)C(=O)c1ccc(Oc2ccccc2)cc1	-3.7
O=C(c1ccc(CS(=O)c2cccc(Cl)c2)o1)N1CCN(C2CCCCC2)CC1 (stereo not drawn)	0.866
CS(=O)(=O)c1ccc2nnn(OCC(=O)Nc3cccc(C#N)c3)c2c1	4.28
O=C(NC(=S)Nc1ccccn1)c1cncc(Br)c1	11.4
CC(C)CC(=O)Nc1ncc([N+](=O)[O-])s1	12.7
COc1ccc(NC(=O)Cn2c(CCC(=O)O)ccc2-c2ccccc2)cc1	13.2
O=C(OCc1cnc(Cl)s1)c1cccc(Cl)c1Cl	12.7
CC(C)CC(C)NC(=O)c1ccc(C(F)(F)F)cc1 (stereo not drawn)	10.6
Cc1cc2oc(=O)cc(CN3CCC(C)CC3)c2cc1Cl	5.54

Structure (SMILES)	hERG current change (%, negative = inhibition) at 1uM [%]
Cc1ccc(-c2nnn(CC(=O)N(CC3CCCO3)C(C(=O)NC(C)(C)C)c3ccc(F)cc3)n2)o1 (stereo not drawn)	19.4
COc1ccc(/C=C/C(=O)NC(=S)N2CCN(C)CC2)cc1	11.4
O=C(O)COc1ccc(F)cc1Br	8.76
COc1ccccc1/C=C/C=C(\C#N)C(=O)NC(C)c1ccccc1 (stereo not drawn)	13.1
COc1ccccc1CNC(=O)c1ccc(S(=O)(=O)N2CCCC2)cc1	6.7
COC(=O)c1ccc(OCC2c3cc(OC)c(OC)cc3CCN2C(C)=O)cc1 (stereo not drawn)	10.9
CCc1ccc(-c2ccc(C(=O)O)c(C)n2)cc1	-0.621
Cc1cccc(NC(=O)Cc2c(F)cccc2Cl)n1	10.7
CCN=c1sc(C(=O)OC)cc(=O)n1CC	21.5
O=C(CCSCc1ccc(Cl)cc1)NC1CCCC1	7.09
O=c1[nH]nc(CNc2ccc(O)cc2)c2ccccc12	0.201
CCOc1ccccc1N(CC(=O)Nc1ccccc1F)S(=O)(=O)c1ccccc1	6.43
CCOc1ccc(S(=O)(=O)n2cc(F)c(=O)[nH]c2=O)cc1	18.8
CC(C)C(=O)Nc1oc(-c2ccccc2)cc1C#N	13
O=C1CCc2cc(S(=O)(=O)NC(C(=O)N3CCN(c4ccccn4)CC3)c3ccccc3)ccc2N1 (stereo not drawn)	8.66
O=C1Nc2ccccc2C(O)(C(=O)NCc2ccco2)N1c1ccccc1 (stereo not drawn)	12.5
Cc1nc2cc(-c3ccc(F)cc3)[nH]n2c(=O)c1C	5.7
Cc1cccc(NS(=O)(=O)c2ccc(NS(=O)(=O)c3cccs3)cc2)c1	13
O=C(O)CCN=C1CCc2ccccc2N1	17.5
CCC(C)C(NC(N)=O)C(=O)Nc1ccc(C)c(Cl)c1 (stereo not drawn)	15.6
Nc1nc(-c2cc(-c3ccccc3)no2)cs1	9.47
O=C(Nc1ccccc1C(=O)N1CCOCC1)c1cc2ccccc2o1	13.7
CCOc1ccc(CC(=O)NNC(=S)Nc2ccc(OC)c(OC)c2)cc1	2.85
COc1ccc(C(=O)Nc2ccc(CN3CCOCC3)cc2)cc1	8.74

Structure (SMILES)	hERG current change (%, negative = inhibition) at 1uM [%]
Cc1cc(C)n(-c2nnc(C)n2NS(=O)(=O)c2ccc(F)cc2)n1	9.16
CC(=O)Nc1ccc(NC(=O)CSc2nnc(NC(=O)c3ccco3)s2)cc1	-1.71
CCc1nc(Nc2ccc(N3CCN(C(C)=O)CC3)cc2)c2oc3ccccc3c2n1.Cl	-7.41
CCOc1cc(/C=C2\SC(=S)N(Nc3ccccc3)C2=O)ccc1O	2.8
COc1ccc(CNCCC(c2ccc(OC(C)C)cc2)c2ccccc2OC)cc1OC (stereo not drawn)	-9.62
COc1cc(OC)cc(-c2c(-c3cccs3)c3cc(-c4ccc(OC)nc4)ccc3n2C)c1	2.9
Cc1c(NC(=O)COc2cccc(Cl)c2Cl)c(=O)n(-c2ccccc2)n1C	-8.72
C=CCn1c(COc2ccc(F)cc2)nnc1SCC(=O)Nc1cccc(S(N)(=O)=O)c1	11.5
CCCNc1nc(Nc2ccc(C)cc2)nc(N2CCCC2)n1	5.61
CCc1nnc(NC(=O)c2ccc(S(=O)(=O)N3CCCC3)cc2)s1	11.6
COc1ccc(S(=O)(=O)N2CCCN(CC(=O)Nc3ccccc3F)CC2)cc1	-4.74
COC(=O)c1ccc(CSc2ccc3nnc(-c4ccccc4)n3n2)o1	-9.01
CC(C)CC(=O)N1CCN(Cc2ccc(Cl)cc2)CC1	-0.383
O=C(C1CCN(C2CCN(Cc3ccc4c(c3)CCO4)CC2)CC1)N1CCCC1	-13.3
CCN(c1ccc(F)cc1)S(=O)(=O)c1cccc2nsnc12	14.5
CC1(C)CC(C)(c2ccc(O)cc2O)N(c2ccc3ccccc3c2)C(=S)N1 (stereo not drawn)	9.77
CN1CCN(C(=O)c2ccccc2NC(=O)C(C)(C)C)CC1	11.9
CCCCC(=O)Nc1ccc(C(=O)Nc2cccnc2)cc1	0.268
C=CCN1C(=O)NC(=O)/C(=C/c2cnc(SC)nc2)C1=O	0.156
COc1ccccc1NC(=S)N1CCNC(=O)C1CC(=O)Nc1cccc(C)c1 (stereo not drawn)	-2.39
O=C(NC(C(=O)O)c1ccccc1)c1ccccc1 (stereo not drawn)	13.9
